For 120 sequences, switch fluorescence ratio results are on record in the supplement of paper PMC10126150.

For this series, the system named is ATP. Put plainly: switch fluorescence ratio, 500 uM ATP over buffer (Cy3 cluster intensity, sum of 5 cycles each) (fold (ratio)); higher = stronger signal-on switching upon ATP binding; sequences stand for … in TCGTCGGCAGCGTCAGATGTGTATAAGAGACAGTTTTTTTTTTTTTTTTTTTTTTTTT…TC. To be noted: aptamer strand: ATP DNA aptamer (quencher-CACCTGGGGGAGTATTGCGGAGGAAGG + anchor), 100 nM annealed; ATP concentration: 500 uM; one replicate. Put shortly:
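Five buffer/ATP imaging cycles were run on Cy3-labelled switching-strand clusters on a modified Illumina MiSeq flow-cell, with NaOH stripping and re-annealing between cycles. In each cycle, clusters annealed to 100 nM quencher-labelled ATP aptamer were imaged in selection buffer, then after 15 min with 500 uM ATP at 22 °C. Per cluster, the fluorescence ratio is summed target-cycle over summed buffer-cycle Cy3 intensity, averaged per switch-domain sequence. Only clusters within 100-1000 RFU were kept.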

Sequences with one replicate were seen in a single cluster, so their values are uncertain.
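Note: ATP exposure 15 min at 22 °C before imaging.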

As to GGCACTTCTT, the switch fluorescence ratio stood at 0.962.

On to TAAAAGCCTC, for which the switch fluorescence ratio amounted to 1.

As to GAAAGCAGTG, the switch fluorescence ratio was determined as 0.972.

As to AGTATAGATA, the switch fluorescence ratio is 1.02.

CACTTGCTTA: the switch fluorescence ratio was determined as 1.03.

In the case of ATTCACTGCT, the switch fluorescence ratio was 1.06.

AGTAGATTGT: the switch fluorescence ratio was 0.96.

As to CCTATGAGCT, the switch fluorescence ratio is 1.06.

As for CTCCACGCGC, the switch fluorescence ratio turned out to be 2.

As to GGTAATTGAG, the switch fluorescence ratio is 0.958.

Turning to CATGGTGGCT, the switch fluorescence ratio came to 1.03.

As for ACCATTCTGT, the switch fluorescence ratio was 0.964.

In the case of AGAATTACGC, the switch fluorescence ratio was 1.07.

Consider AGATTGATTA, for which the switch fluorescence ratio came out at 0.991.

Consider CAGGGAGAGC, for which the switch fluorescence ratio worked out at 0.967.

On to GCAACTCTTT, for which the switch fluorescence ratio was found to be 1.01.

For CAGTTGTGCC, the switch fluorescence ratio turned out to be 1.03.

Regarding GCGTGTTTGC, the switch fluorescence ratio was 1.04.

For the sequence AGTAAATAAT, the switch fluorescence ratio turned out to be 0.95.

For ATACGCGTGT, the switch fluorescence ratio was 1.03.

Regarding TAGGACCCTA, the switch fluorescence ratio came to 1.08.

Consider GTAGGAGTTA, for which the switch fluorescence ratio was 1.28.

With TGTTGAGATT, the switch fluorescence ratio stood at 1.05.

In the case of CCTTGACATT, the switch fluorescence ratio turned out to be 1.06.

On to CACCAGGGCG, for which the switch fluorescence ratio stood at 1.15.

Consider GCATCTCTGA, for which the switch fluorescence ratio was determined as 0.964.

On to GCGGGACCTG, for which the switch fluorescence ratio was determined as 1.02.

Take CGCAACAGGG: the switch fluorescence ratio was 1.3.

Regarding CATGTGGTAT, the switch fluorescence ratio was 0.97.

For TGGAGGCTTC, the switch fluorescence ratio turned out to be 0.968.

GAGATGTGAC: the switch fluorescence ratio worked out at 0.978.

Regarding GTCATGGGTA, the switch fluorescence ratio worked out at 0.957.

As for GTATGGCTTT, the switch fluorescence ratio stood at 1.02.

As for AACTATGTAG, the switch fluorescence ratio turned out to be 1.03.

Take AAAGAGCTAT: the switch fluorescence ratio is 0.986.

TTCCGGGATG: the switch fluorescence ratio came to 1.08.

Take TGGCATCAC: the switch fluorescence ratio turned out to be 1.08.

Take ATTTCCTCAA: the switch fluorescence ratio is 1.14.

Consider CTTTATGCTT, for which the switch fluorescence ratio amounted to 0.954.

Take GGATTCGGGA: the switch fluorescence ratio worked out at 1.

Turning to GGGGAGCTAA, the switch fluorescence ratio stood at 1.02.

For ACGACGGCA, the switch fluorescence ratio was found to be 1.46.

Consider AGTACATACT, for which the switch fluorescence ratio came out at 1.4.

As to AGCTTTT, the switch fluorescence ratio was 1.04.

In the case of TGGCGTATG, the switch fluorescence ratio was found to be 0.992.

As for AACCACCTTT, the switch fluorescence ratio worked out at 1.09.

For CCGTGGACAC, the switch fluorescence ratio was determined as 1.79.

Consider ATGGTGGAAG, for which the switch fluorescence ratio turned out to be 1.41.

Regarding ACTTTATTT, the switch fluorescence ratio turned out to be 1.

With TTAAGATATA, the switch fluorescence ratio came to 0.924.

Take ACGACATTCA: the switch fluorescence ratio stood at 1.15.

For GTGGAAGCTA, the switch fluorescence ratio came to 0.992.

For TAAAATGAGC, the switch fluorescence ratio was determined as 0.958.

For the sequence CAGACCAGGT, the switch fluorescence ratio is 1.01.

Turning to CTCCCATGCG, the switch fluorescence ratio came to 1.53.

With TGGGGGATCC, the switch fluorescence ratio is 0.977.

Turning to TAATTTTTAC, the switch fluorescence ratio came to 1.03.

Take CTTGCTTACT: the switch fluorescence ratio stood at 1.11.

Consider GGTAGGGTAT, for which the switch fluorescence ratio was 1.02.

In the case of TCTCTAAGG, the switch fluorescence ratio came to 0.981.

As to TTGTGTGCCG, the switch fluorescence ratio is 1.03.

Take TTTAACCTCA: the switch fluorescence ratio came out at 1.01.

Take GATGTATCGC: the switch fluorescence ratio was determined as 1.02.

With GAACGCCTAG, the switch fluorescence ratio came to 1.01.

On to AGCTTGAATG, for which the switch fluorescence ratio amounted to 1.01.

For ATGCGTGATG, the switch fluorescence ratio was found to be 1.02.

Consider CCTTGGGGAG, for which the switch fluorescence ratio was 0.988.

On to CGGTGGGTAC, for which the switch fluorescence ratio came out at 1.01.

As for GCTCGTATCC, the switch fluorescence ratio worked out at 0.958.

Turning to ATTATTCTGT, the switch fluorescence ratio is 0.947.

In the case of CAGATAACCC, the switch fluorescence ratio is 0.984.

Regarding CATCAACGTG, the switch fluorescence ratio stood at 1.03.

With GGACACGCTG, the switch fluorescence ratio worked out at 1.03.

TCGCGCAGTC: the switch fluorescence ratio was 1.46.

As for TGAGGCTTG, the switch fluorescence ratio was found to be 1.03.

As for ATACAGCTGC, the switch fluorescence ratio is 1.03.

Take TAAGGGCTAC: the switch fluorescence ratio was found to be 1.09.

With ATATACGAGC, the switch fluorescence ratio worked out at 1.05.

For ACTGAAAAAA, the switch fluorescence ratio is 1.17.

Regarding TACCGGCAT, the switch fluorescence ratio came out at 1.04.

As for TGATATCTTA, the switch fluorescence ratio amounted to 0.993.

Turning to GGCCAAGATG, the switch fluorescence ratio is 0.97.

As to AGTTTAAGGG, the switch fluorescence ratio came to 1.01.

Turning to CCATAGCG, the switch fluorescence ratio worked out at 1.59.

On to GTCCCGCTGT, for which the switch fluorescence ratio is 1.34.

Regarding AGAGAAAAAC, the switch fluorescence ratio is 1.05.

As for AAGCAGAAGT, the switch fluorescence ratio came to 1.01.

Regarding GAACCTTCGG, the switch fluorescence ratio is 1.05.

GGATAAGTCC: the switch fluorescence ratio turned out to be 0.989.

On to TCAATACTGG, for which the switch fluorescence ratio came out at 1.09.

Consider GGTGGCAGTG, for which the switch fluorescence ratio was 1.18.

With TCATGACTAT, the switch fluorescence ratio worked out at 0.978.

ATGAGTAGTT: the switch fluorescence ratio stood at 0.948.

Regarding GGTGTGCGGT, the switch fluorescence ratio came out at 0.954.

Consider AAAAAACCTT, for which the switch fluorescence ratio amounted to 0.998.

As for ACATGTGAAG, the switch fluorescence ratio came to 1.02.

Take CCGGTGAATT: the switch fluorescence ratio came out at 1.05.

Regarding TTGTTAGGGA, the switch fluorescence ratio turned out to be 0.988.

AGGCCGGAGG: the switch fluorescence ratio was determined as 1.03.

As for CGGTGCGAGC, the switch fluorescence ratio stood at 0.984.

For the sequence AACGGTTCAA, the switch fluorescence ratio was 1.01.

On to CAATGTCCCC, for which the switch fluorescence ratio worked out at 1.21.

As to TCCAGCATTA, the switch fluorescence ratio came out at 1.74.

In the case of TGTGTAACA, the switch fluorescence ratio is 0.98.

Take TATTAATCGC: the switch fluorescence ratio stood at 0.992.

With TTGAGTTGTG, the switch fluorescence ratio turned out to be 0.962.

Take GGTATCGATG: the switch fluorescence ratio stood at 0.953.

Turning to TGGACGACCC, the switch fluorescence ratio amounted to 1.44.

As for AGTTCGCGTC, the switch fluorescence ratio amounted to 1.04.

Consider AGGGTCGCAC, for which the switch fluorescence ratio worked out at 1.01.

As to GGGTGTATGA, the switch fluorescence ratio came to 1.02.

On to GACGGTCAGC, for which the switch fluorescence ratio was found to be 1.04.

Consider ACCAGCACCC, for which the switch fluorescence ratio turned out to be 1.29.

Turning to CGAGACTGCT, the switch fluorescence ratio was 0.984.

As for TACGCGCCAT, the switch fluorescence ratio was determined as 1.01.

Turning to AACGATCGTC, the switch fluorescence ratio was determined as 1.01.

Regarding TTGTTAATTA, the switch fluorescence ratio is 1.01.

CGACGTAGCT: the switch fluorescence ratio was 1.16.

Take GCTTCACGGA: the switch fluorescence ratio was determined as 1.02.

On to TATTTCTCCG, for which the switch fluorescence ratio is 1.88.
